Laboratory results as given in the supplement of paper PMC10681739.
± gives the standard deviation of the averaged measurements. Over roughly 4,100 sequences, “arbitrary fluorescence units” has its median near 780; the highest 2% begin near 22,000. This is one part of the list.

biological target: T1, ETS1 (UniProt P14921); experiment: ETS1 binding intensity (PBM fluorescence), ETS1 alone (arbitrary fluorescence units); higher = stronger binding; details: ETS1 concentration 1 nM; RUNX1 concentration 0 nM
T1 sequence: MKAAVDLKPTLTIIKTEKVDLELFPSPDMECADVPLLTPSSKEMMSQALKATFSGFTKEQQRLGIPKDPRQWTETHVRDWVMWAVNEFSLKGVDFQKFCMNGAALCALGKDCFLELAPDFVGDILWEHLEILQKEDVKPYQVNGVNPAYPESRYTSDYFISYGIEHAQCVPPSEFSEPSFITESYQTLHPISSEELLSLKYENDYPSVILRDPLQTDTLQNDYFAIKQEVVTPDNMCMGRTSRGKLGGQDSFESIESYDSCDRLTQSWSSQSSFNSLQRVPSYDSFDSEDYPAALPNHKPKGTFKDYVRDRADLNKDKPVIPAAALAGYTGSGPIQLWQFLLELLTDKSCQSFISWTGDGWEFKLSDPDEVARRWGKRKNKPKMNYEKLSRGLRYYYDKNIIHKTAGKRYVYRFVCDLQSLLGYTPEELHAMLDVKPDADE
How it was run: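 Recombinant full-length human ETS1 was applied at 1 nM, without RUNX1, to double-stranded Agilent 4 × 180k arrays of 36-bp genomic probes carrying a mutated RUNX1 partner site, following standard PBM protocols. Detection used an anti-ETS1 antibody (Cell Signaling Technology 14069) and an Alexa488-conjugated secondary antibody, with scanning on a GenePix 4400A. Each sequence was printed as four replicate spots. Binding level is the spot fluorescence intensity, summarised across replicates and not normalised.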

In order of rising ETS1 binding intensity:
1. CGGCAGCTTGCGCTTAGCCGTTCTTTCCGCCCAGTT  314
2. TACGGCGGGAACCCCAATCGCGCAGTTCCGCAGCTG  317
3. TGGAAGCTTCGGCCGCCTCGCACCCGGAACAACAAA  340
4. CCGAGGTGGTGCCCTTGCCCCTGATGAGGAAACTGA  342
5. TGGATAAGCGCGCAAGGTCTCGCGGAAAGGAGAGGA  347
6. CCCGCCACCTCAGAAGAGCCAATCGGAAGCTCTGGG  351
7. GTTTCGGGCCGAAGAAGCTCATGAGGGAAACGCAGG  366
8. GCGCTGTACTGCGCCTTGTGCCGCTTCCGCGAGAAG  369
9. ATTCGTTTCGGCAGCGCAGCAGCCACCGGACAAGCA  377
10. AATATGAGGGCTGAGGCGATGGTTTCCTGGGGTGCT  382
11. GGTAAACCATGCGCTCGATGGGGAGGATGTGGAGAT  389
12. AATGTAGGAAATTCCACTGCATAATTTGGGGTAGTG  391 ± 4.5
13. ACTCTAAGCGCAGTGACGTGGGACTTCCTCGGCAGG  400
14. TGAAGTTGAGGGGTGTTTTTATCAGCAGGAAACAGC  407
15. GATAAGCGGATTCTAATGAGCTCACTGGTTTCCGAT  410
16. TCATGTATCACTGCAACACCGGATCCTTAGCCACTG  412 ± 9.2
17. AGCTGGGGGCGCTTGTGGAGGGAAGTCCCTTGGCAT  412
18. GATGACGTCACCAGAGTAAGACAACAGGATACCGCT  414
19. ACGCCCGCTGACAACACTGGCGACTTCCCTCTCTGT  417
20. GAAGGAAGCCCGGTCACCTTTCTTGGCCCTCAGAGT  419
21. CTAAGGCTGTGATTTGTACCCTAGCAGGAAAGGCAG  421
22. CCAGTGCAGAAACATCCCTCCTGCCGCCGCTTTGTC  422
23. GGTCCAGGAAGACGTCAAGGGCTTGGATTTGTAAAC  437
24. ACTGGGGCTGAGACACAGAAGGGAAAGGATGTGACC  438
25. ACAGTGTGCTTGTGTTTTCTGTGCATCACTTCCCTG  439
26. AGGCTGCGACCAGCGGGCGGAGGAAGGGGGTGGCCT  452
27. CGGTGCAATGGTTCCGCCTCCCGCTGGTTCGCCGAG  462
28. TGCTTCTTCGGTGGCAGTGGCTTCCTCTGGCAAGGG  470
29. CAATGTGATTAAAACCAGTTAGTTCCCTCGGAAGTT  473
30. AGAGGAAGTAAATTCTAACAGTGGAAATCACAGATT  496
31. GGGCAATGTCGTCGCCAGACCATCCTGTCACTTAGG  520
32. GCAAACACACCAGAGACTGCAGACCCGGAAGAACTT  525
33. ACCTCCACCCCAAAGAACAAAAAAGGAAGGATAAAA  527
34. GCCTCTCTGGGCTGATGAAGGACAGACAGGAAGCCA  546
35. CTACCGTGCCCTCAAGGCAGCGCGCCGGAAGCCCCG  573
36. ACGTACGGGATGTGGGAGGTTTGTTTTGACAACACC  646
37. TCAAAGAGGCAGTGCTTTATAATTTCCTCTTGACTG  655
38. GTCTTGTTTTGGGGTGTAAGCACTTCCCGCTAAGCA  665
39. TGAGGGCATAGGAAGTGATGGCCGTAAGGGGATGCC  673
40. GCCTTTCTGGAGCCCCAAAGACAGGAAGAGAGCGTC  693
41. GAGGTGCTCAGAGCCTCCCTTGACAGGAAACAAGAA  728
42. GCCCCTTTTTCCTGGGATGAGCGCTTAGCGGAGGGG  746
43. CCAGAAATCCACTGGAGGTAACTTCCTCCATTTTTT  783
44. TGCTTCATCTGAGGTGAGGGCTGCTTCCTGCTCTGT  850
45. GAATAACTACAACAACCGATGCACTTCCGTGTTTAA  893
46. GCTGGGCCATCCTGCCACATGCACCTCATCTCTGGG  923
47. GCCAGGCGGGCGCTGATCCCCAGAACATCCGGGAGC  1170
48. ACTCCAGGATCCGGCCGCGTTGCTCACACACTTCGC  1180
49. TATGCTGGGACTGCTAGCCCTTCCGGCGCGCCTCAG  1250
50. GGTGGACCTGTGATTTGCAACACAGGAAGAGGCGGC  1260
51. TGGTTGTAGTTTGGAGATTCTGATGTCATTTCCTGT  1270
52. GACAACTGCCAGTAACGACAGCAGCTTCCGTTCCCC  1380
53. GGCGTGCTTCGGTGCTGTCATTTCCTGGTGCCTTTT  1470
54. GGCCCACATCCTTATGACTCAGCAGATGCGCCTGTC  1580
55. CCCAGAGCTTCCGATTGGCTCTTCTGAGGTGGCGGG  1750
56. CGTTTCCTCGCGGGCCGGCGCACCTCGCGATCACTT  2090
57. AATACCCTCTGGTGGCCGCCGGAAGTGTCGCGGCGG  2280
58. AAAGGTGCTTGAGATCTATCCCACATCCTGTCTTTC  2450
59. GTCCCTGTTTCCTCCCTCAGCTCCCGAAACCTCCGG  2490
60. TTTACAGGAAATTACAGGGGTTAAACCAAACCCCAA  2570
61. TAACCCTGTTTTATCACATCATTTCCTGCTGAAGAG  2800
62. AAACAAAGTCAAAGCACAGCACTTCCTGCATTCTGG  2890
63. CTCTTCAGCAGGAAATGATGTGATAAAACAGGGTTA  3070
64. TGACAGACCCGGAAATAAGAGGAGACAACACACTTG  4440
65. TGGGGCTCTTCCTGCTTATGTGAGCACAGCACCTTG  4750
66. AAACAGGAAATCACAGCAGCGTAGCGGAGTGGAGCA  4950
67. CACCCTCAACTTCCTGACCCATAAACCCCAAGCTAT  5730
68. ATTCTGCATCCTGTGCTCTTTCCATGAGACCAAAAA  5770
69. GATACTCTTCCTGTCATCCCATCCCCTCAGCCTTAG  6330
70. CCCTTCCTGTGAGGGAGGTTCCAGTTCCCTCAGCGG  7140
71. CCGCCCACTTCCGTGTGGCCGCCGATTGGTCTTGCC  7350
72. TGACGGTGAGCGCTTCAGGTCAGGACCGGAAGTGCC  7850
73. TGCGCCGCTTCCGCTGCCCGAGGAAGAGCCCCAGTC  8590
74. GCTCCGCTTCCGGGAGGCGGGGCTTCTCCGGGTTCC  9540
75. GGCTTCCGCCTGCCGAGCGGCCCCGGACTGCAGGCC  9840
76. AAGTTGATTTCCGGGTAGTCTGTAGTTTCCTAATCA  10600
77. AGCCCGGCTTCCGGCGCGTGCCGCTGCAGCTGCAGG  11200
78. TTTGATTTCCTGTCTCCATGTTGGGGTCAAGATTGC  16200
79. GCAGGGACCGGAAGTCCATGGCTCTGCCGCCACCCT  18000
80. ACCCACTTCCTGTTAGAGCATCTTTGCAACCCCAGG  30200
